{"source": "the BET-seq Pho4 binding data (Le et al. 2018)", "note": "Some of the results follow. The energies were worked out here from pooled read counts, against the library average; single values are noisy."}
{"target": "T1, Pho4 (S. cerevisiae) (UniProt P07270)", "T1 sequence": "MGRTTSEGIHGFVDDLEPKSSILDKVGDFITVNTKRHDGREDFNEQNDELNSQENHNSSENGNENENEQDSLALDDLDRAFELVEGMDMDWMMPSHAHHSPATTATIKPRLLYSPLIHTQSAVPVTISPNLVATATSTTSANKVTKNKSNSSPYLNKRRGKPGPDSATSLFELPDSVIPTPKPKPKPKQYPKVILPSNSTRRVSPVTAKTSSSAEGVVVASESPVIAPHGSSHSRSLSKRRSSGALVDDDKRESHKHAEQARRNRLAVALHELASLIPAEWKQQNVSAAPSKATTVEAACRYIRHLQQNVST", "test": "relative binding free energy (BET-seq); higher = weaker binding", "conditions": "reference: library average", "units": {"relative binding free energy": "kcal/mol"}}
{"sequence": "TCTGTCACGTGGGTGA", "relative binding free energy": -0.12}
{"sequence": "GATGGCACGTGTGCGT", "relative binding free energy": -0.01}
{"sequence": "TTTACCACGTGTGGTA", "relative binding free energy": -0.14}
{"sequence": "AAGGTCACGTGCCAGT", "relative binding free energy": 0.15}
{"sequence": "TCCCGCACGTGGGGGT", "relative binding free energy": -0.16}
{"sequence": "TACGGCACGTGTGGAT", "relative binding free energy": 0}
{"sequence": "TCTATCACGTGGTGTT", "relative binding free energy": 0.1}
{"sequence": "GGACTCACGTGCAGGG", "relative binding free energy": 0.33}
{"sequence": "GTTCTCACGTGTTTAT", "relative binding free energy": 0.33}
{"sequence": "ATTGTCACGTGGGTAT", "relative binding free energy": -0.11}
{"sequence": "GTGGGCACGTGCCCGG", "relative binding free energy": -0.14}
{"sequence": "TCATTCACGTGGTTTG", "relative binding free energy": 0.18}
{"sequence": "TTTTCCACGTGTGGGA", "relative binding free energy": 0.08}
{"sequence": "GTCCTCACGTGGTTGG", "relative binding free energy": 0.31}
{"sequence": "GGGGACACGTGATATT", "relative binding free energy": 0.23}
{"sequence": "CGTGGCACGTGGTCGT", "relative binding free energy": -0.24}
{"sequence": "ATGTTCACGTGAGCTT", "relative binding free energy": 0.32}
{"sequence": "ATTAGCACGTGGTAAG", "relative binding free energy": -0.17}
{"sequence": "AGAGACACGTGGTTGG", "relative binding free energy": 0.02}
{"sequence": "GTGATCACGTGGGCTC", "relative binding free energy": 0.15}
{"sequence": "TGGTTCACGTGGCAGC", "relative binding free energy": 0.19}
{"sequence": "ATGGACACGTGTTATA", "relative binding free energy": 0.03}
{"sequence": "CGTATCACGTGGGGGC", "relative binding free energy": -0.08}
{"sequence": "CGTTGCACGTGAGTGG", "relative binding free energy": 0.21}
{"sequence": "TGTGACACGTGGGTGA", "relative binding free energy": -0.08}
{"sequence": "CTTATCACGTGGGGGC", "relative binding free energy": -0.06}
{"sequence": "ATGGACACGTGCGGAT", "relative binding free energy": 0.04}
{"sequence": "TCGTGCACGTGTGTGT", "relative binding free energy": -0.13}
{"sequence": "TCGATCACGTGGAGTG", "relative binding free energy": 0.03}
{"sequence": "AGGGACACGTGTTAAA", "relative binding free energy": 0.17}
{"sequence": "GATATCACGTGAGTCG", "relative binding free energy": 0.49}
{"sequence": "ATTTGCACGTGAGTTG", "relative binding free energy": 0.29}
{"sequence": "CGGAACACGTGGGGTG", "relative binding free energy": -0.28}
{"sequence": "TATGGCACGTGCGTTC", "relative binding free energy": -0.12}
{"sequence": "ATATGCACGTGGGACT", "relative binding free energy": -0.06}
{"sequence": "TGAATCACGTGATTGG", "relative binding free energy": 0.29}
{"sequence": "GGCGGCACGTGGCATG", "relative binding free energy": -0.04}
{"sequence": "AGTAACACGTGTGAAG", "relative binding free energy": 0}
{"sequence": "GAATTCACGTGTGATT", "relative binding free energy": 0.32}
{"sequence": "TGGGGCACGTGTTTCT", "relative binding free energy": -0.08}
{"sequence": "AGGTTCACGTGACAGT", "relative binding free energy": 0.42}
{"sequence": "TGCTTCACGTGTGGGT", "relative binding free energy": 0.28}
{"sequence": "ACGTTCACGTGTTAGG", "relative binding free energy": 0.15}
{"sequence": "TACTGCACGTGGCTTG", "relative binding free energy": 0.06}
{"sequence": "TTGGCCACGTGGTCTT", "relative binding free energy": -0.12}
{"sequence": "CTATACACGTGAGTTG", "relative binding free energy": 0.27}
{"sequence": "GGGGCCACGTGTTAGA", "relative binding free energy": -0.07}
{"sequence": "CTGTGCACGTGTTAAG", "relative binding free energy": -0.1}
{"sequence": "CTCGGCACGTGTTGTG", "relative binding free energy": -0.13}
{"sequence": "TTTGCCACGTGTTAAG", "relative binding free energy": -0.08}
{"sequence": "TTGAACACGTGTGAGT", "relative binding free energy": 0.11}
{"sequence": "ATAGGCACGTGTGTCT", "relative binding free energy": -0.17}
{"sequence": "ATAGGCACGTGTCGTG", "relative binding free energy": -0.16}
{"sequence": "ATATGCACGTGGTAGT", "relative binding free energy": -0.1}
{"sequence": "GGGAACACGTGTTCGT", "relative binding free energy": 0}
{"sequence": "AAAGACACGTGATGGT", "relative binding free energy": 0.11}
{"sequence": "GGGTTCACGTGCGGGG", "relative binding free energy": 0.33}
{"sequence": "CTCGTCACGTGGGGAG", "relative binding free energy": -0.09}
{"sequence": "TGCAGCACGTGTTGTG", "relative binding free energy": -0.14}
{"sequence": "ATCTGCACGTGTTAGT", "relative binding free energy": -0.04}
{"sequence": "AATCGCACGTGTAGTT", "relative binding free energy": 0.02}
{"sequence": "GTGTCCACGTGCAGGT", "relative binding free energy": 0.09}
{"sequence": "ATGTACACGTGTAATT", "relative binding free energy": 0.04}
{"sequence": "GGGAACACGTGGTATT", "relative binding free energy": 0.04}
{"sequence": "CCTGGCACGTGGAGTG", "relative binding free energy": -0.1}
{"sequence": "ATAGGCACGTGGTTGT", "relative binding free energy": -0.08}
{"sequence": "AGTATCACGTGAAAGG", "relative binding free energy": 0.13}
{"sequence": "GTGAACACGTGAAGGG", "relative binding free energy": 0.26}
{"sequence": "TTGGCCACGTGGCTTG", "relative binding free energy": -0.15}
{"sequence": "GGAATCACGTGGGTGG", "relative binding free energy": 0.12}
{"sequence": "GTTTTCACGTGAGGTC", "relative binding free energy": 0.54}
{"sequence": "AAGTGCACGTGGGTTA", "relative binding free energy": -0.16}
{"sequence": "GTGTCCACGTGGGCGC", "relative binding free energy": -0.03}
{"sequence": "TGATACACGTGTAGTT", "relative binding free energy": 0.1}
{"sequence": "CTGTTCACGTGTGTGC", "relative binding free energy": 0.28}
{"sequence": "GGTGGCACGTGTAAAG", "relative binding free energy": 0.13}
{"sequence": "CGGCGCACGTGGCGTG", "relative binding free energy": -0.31}
{"sequence": "TCAGTCACGTGCGGTT", "relative binding free energy": -0.01}
{"sequence": "AGTAGCACGTGATAAG", "relative binding free energy": 0.01}
{"sequence": "TGTAGCACGTGTGCTT", "relative binding free energy": -0.02}
{"sequence": "ATAGTCACGTGACGGA", "relative binding free energy": 0.26}
{"sequence": "AGGTTCACGTGTAACT", "relative binding free energy": 0.28}
{"sequence": "ATATGCACGTGAAATG", "relative binding free energy": 0.31}
{"sequence": "TTCGTCACGTGGGTGC", "relative binding free energy": 0}
{"sequence": "GTTAGCACGTGCGATG", "relative binding free energy": -0.02}
{"sequence": "TGTGTCACGTGATATG", "relative binding free energy": 0.13}
{"sequence": "TGATACACGTGATAGT", "relative binding free energy": 0.09}
{"sequence": "GGTATCACGTGAGATG", "relative binding free energy": 0.34}
{"sequence": "GATGTCACGTGAGTTA", "relative binding free energy": 0.38}
{"sequence": "GAGTACACGTGATTGT", "relative binding free energy": 0.23}
{"sequence": "TTGTGCACGTGACGGT", "relative binding free energy": 0.06}
{"sequence": "TGCTGCACGTGAGGTT", "relative binding free energy": 0.16}
{"sequence": "GAGGACACGTGAAGTG", "relative binding free energy": 0.32}
{"sequence": "CGGATCACGTGCGGGT", "relative binding free energy": 0.14}
{"sequence": "AATGTCACGTGCGGTA", "relative binding free energy": 0.01}
{"sequence": "AGTTACACGTGCGATT", "relative binding free energy": 0.15}
{"sequence": "TATGACACGTGACTGT", "relative binding free energy": 0.13}
{"sequence": "AGGAACACGTGGGTAT", "relative binding free energy": -0.15}
{"sequence": "GTTTGCACGTGTTATC", "relative binding free energy": 0.02}
{"sequence": "ATAGTCACGTGTTGCG", "relative binding free energy": 0.01}
{"sequence": "TCTCTCACGTGGGTTT", "relative binding free energy": 0.08}
{"sequence": "CGTTGCACGTGTGTAG", "relative binding free energy": 0.17}
{"sequence": "AGAATCACGTGTGATG", "relative binding free energy": 0.19}
{"sequence": "TCGTACACGTGTTATT", "relative binding free energy": 0.08}
{"sequence": "GGAGTCACGTGTCGGG", "relative binding free energy": 0.2}
{"sequence": "ACTTTCACGTGGGGAT", "relative binding free energy": 0.08}
{"sequence": "TTTCTCACGTGAGGCT", "relative binding free energy": 0.27}
{"sequence": "GGGCGCACGTGGTCGT", "relative binding free energy": -0.16}
{"sequence": "GCGTGCACGTGGGGAT", "relative binding free energy": -0.15}
{"sequence": "TTTTTCACGTGAAATT", "relative binding free energy": 0.38}
{"sequence": "AAAGTCACGTGGATTT", "relative binding free energy": 0.1}
{"sequence": "GTCGGCACGTGGATTA", "relative binding free energy": 0.04}
{"sequence": "TAGGTCACGTGAGCTT", "relative binding free energy": 0.18}
{"sequence": "TTGAGCACGTGAGGAT", "relative binding free energy": 0.24}
{"sequence": "TTTACCACGTGCTTTT", "relative binding free energy": 0.03}
